The record followed here is article PMC3243670.

Protein sequences, listed by entry. Tags and fused reporters are not part of them.
UniProt Q9UM11: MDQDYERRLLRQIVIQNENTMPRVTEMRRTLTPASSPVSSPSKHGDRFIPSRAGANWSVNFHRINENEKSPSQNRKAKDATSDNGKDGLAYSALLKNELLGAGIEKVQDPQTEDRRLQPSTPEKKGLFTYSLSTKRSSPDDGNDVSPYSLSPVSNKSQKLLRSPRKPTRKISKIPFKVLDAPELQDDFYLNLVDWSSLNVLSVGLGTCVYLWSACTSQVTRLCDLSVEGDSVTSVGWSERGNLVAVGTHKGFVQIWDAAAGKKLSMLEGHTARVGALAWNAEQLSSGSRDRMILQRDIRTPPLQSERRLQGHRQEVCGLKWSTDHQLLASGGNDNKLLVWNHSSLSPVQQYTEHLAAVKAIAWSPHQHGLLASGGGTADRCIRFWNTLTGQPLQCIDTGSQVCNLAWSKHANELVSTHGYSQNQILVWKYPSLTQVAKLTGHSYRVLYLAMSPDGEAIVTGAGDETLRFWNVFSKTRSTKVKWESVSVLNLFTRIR
UniProt Q12834: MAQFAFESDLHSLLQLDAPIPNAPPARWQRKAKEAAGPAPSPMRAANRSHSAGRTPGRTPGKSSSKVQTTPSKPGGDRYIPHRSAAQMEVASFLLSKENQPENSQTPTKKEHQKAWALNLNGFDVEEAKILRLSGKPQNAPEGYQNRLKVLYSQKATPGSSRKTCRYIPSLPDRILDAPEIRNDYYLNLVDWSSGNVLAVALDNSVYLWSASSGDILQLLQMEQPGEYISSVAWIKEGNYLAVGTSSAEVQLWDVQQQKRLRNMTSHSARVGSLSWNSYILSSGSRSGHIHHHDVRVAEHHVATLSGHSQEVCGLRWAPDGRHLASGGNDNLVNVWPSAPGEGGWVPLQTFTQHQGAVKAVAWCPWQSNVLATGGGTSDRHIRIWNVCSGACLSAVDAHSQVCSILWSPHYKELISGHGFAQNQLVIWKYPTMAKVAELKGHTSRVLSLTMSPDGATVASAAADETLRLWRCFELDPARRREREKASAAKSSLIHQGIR
UniProt P63208: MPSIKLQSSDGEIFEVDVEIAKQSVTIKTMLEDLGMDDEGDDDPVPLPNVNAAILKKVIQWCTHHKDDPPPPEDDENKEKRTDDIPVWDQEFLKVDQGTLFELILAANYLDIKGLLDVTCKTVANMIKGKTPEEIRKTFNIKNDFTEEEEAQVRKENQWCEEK

No constants are given. Whether binding was seen depends on the method and setting. In cells and extracts the contact can be indirect. Some results given as binding are weak or reduced against the parent protein; the word gives no strength. Sequences can lack the tags named with a protein.

Test [1] concerns the target T1, Flag-NIPA (Nuclear Interaction Partner of Alk kinase), wild type (human) (UniProt Q86WB0).
T1 sequence: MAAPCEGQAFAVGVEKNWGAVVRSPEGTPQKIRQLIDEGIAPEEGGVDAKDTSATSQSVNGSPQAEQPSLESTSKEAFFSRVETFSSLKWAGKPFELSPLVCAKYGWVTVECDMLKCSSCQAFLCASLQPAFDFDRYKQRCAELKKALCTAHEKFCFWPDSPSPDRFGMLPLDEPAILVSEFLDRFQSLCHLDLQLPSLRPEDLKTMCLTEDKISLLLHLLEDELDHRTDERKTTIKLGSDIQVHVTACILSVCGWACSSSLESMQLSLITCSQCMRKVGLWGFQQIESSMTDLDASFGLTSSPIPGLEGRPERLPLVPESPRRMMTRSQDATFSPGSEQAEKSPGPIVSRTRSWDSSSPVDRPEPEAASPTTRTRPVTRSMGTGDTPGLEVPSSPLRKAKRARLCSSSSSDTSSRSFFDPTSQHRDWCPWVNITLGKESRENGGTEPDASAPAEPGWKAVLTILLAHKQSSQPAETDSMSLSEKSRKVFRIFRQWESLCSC
Put plainly: co-IP; HA-Cdh1 co-expressed with Flag-NIPA, with or without overexpressed Skp1, in HEK293T cells; extracts immunoprecipitated with an antibody against Flag.

For test [2], the target named is T1, Flag-NIPA (Nuclear Interaction Partner of Alk kinase), wild type (human). In words: co-IP; Flag-NIPA co-expressed with HA-Cdh1 or HA-Cdc20 in HEK293T cells, MG132 added 6 h before collection; extracts immunoprecipitated with an antibody against Flag.
The target in a further test is T2, GST-NIPA wt (human) (UniProt Q86WB0).
T2 sequence: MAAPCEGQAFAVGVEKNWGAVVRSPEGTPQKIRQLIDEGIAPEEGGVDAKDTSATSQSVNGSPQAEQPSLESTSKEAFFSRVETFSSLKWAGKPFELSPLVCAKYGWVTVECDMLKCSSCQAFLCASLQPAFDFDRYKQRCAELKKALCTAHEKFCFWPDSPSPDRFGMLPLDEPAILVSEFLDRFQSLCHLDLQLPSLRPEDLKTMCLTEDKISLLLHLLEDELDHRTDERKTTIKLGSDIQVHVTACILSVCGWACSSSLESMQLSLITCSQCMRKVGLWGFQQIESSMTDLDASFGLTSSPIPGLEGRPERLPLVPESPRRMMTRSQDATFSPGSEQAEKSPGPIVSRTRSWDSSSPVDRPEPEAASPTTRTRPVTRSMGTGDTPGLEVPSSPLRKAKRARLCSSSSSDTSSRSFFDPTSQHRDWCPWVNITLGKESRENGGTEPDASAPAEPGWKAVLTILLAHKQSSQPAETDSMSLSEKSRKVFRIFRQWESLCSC
In words: pull-down; 30 ul in vitro translated 35S-labeled Cdh1 incubated with glutathione beads with bound GST-NIPA; 10 mM Tris/HCl pH 7.5, 100 mM NaCl, 5 mM EDTA, 0.1% Triton X-100, 1 h at 4°C; SDS-PAGE and autoradiography; only the target purified.

The target in the next test is HA-Cdh1 (UniProt Q9UM11). In words: co-IP; Myc-NIPA co-expressed with HA-Cdh1 or HA-Cdc20 in HEK293T cells, MG132 added 6 h before collection; extracts immunoprecipitated with an antibody against HA-tag.
In another test the target is HA-Cdc20 (UniProt Q12834). The test is described as above.

For the molecule HA-Cdh1 (from UniProt Q9UM11 1-496), the binding entry in test [1] and in test [2] was “binds” each time. With “in vitro translated, 35S-labeled Cdh1 (from UniProt Q9UM11 1-496)”, the binding result with GST-NIPA wt (human) is recorded as “binds”. Skp1 (from UniProt P63208 1-163): the binding result in test [1] is reported as “binds”.

Regarding HA-Cdc20 (from UniProt Q12834 1-499), the binding entry in test [2] is on record as “no binding”.

B1: Myc-NIPA (protein, UniProt Q86WB0 1-502)
chain: MAAPCEGQAFAVGVEKNWGAVVRSPEGTPQKIRQLIDEGIAPEEGGVDAKDTSATSQSVNGSPQAEQPSLESTSKEAFFSRVETFSSLKWAGKPFELSPLVCAKYGWVTVECDMLKCSSCQAFLCASLQPAFDFDRYKQRCAELKKALCTAHEKFCFWPDSPSPDRFGMLPLDEPAILVSEFLDRFQSLCHLDLQLPSLRPEDLKTMCLTEDKISLLLHLLEDELDHRTDERKTTIKLGSDIQVHVTACILSVCGWACSSSLESMQLSLITCSQCMRKVGLWGFQQIESSMTDLDASFGLTSSPIPGLEGRPERLPLVPESPRRMMTRSQDATFSPGSEQAEKSPGPIVSRTRSWDSSSPVDRPEPEAASPTTRTRPVTRSMGTGDTPGLEVPSSPLRKAKRARLCSSSSSDTSSRSFFDPTSQHRDWCPWVNITLGKESRENGGTEPDASAPAEPGWKAVLTILLAHKQSSQPAETDSMSLSEKSRKVFRIFRQWESLCSC
On to B1, for which the results for the binding entry with HA-Cdh1 and with HA-Cdc20 were “binds” and “no binding”, respectively.
